What is called % Inhibition is the change of the read-out against control, counted positive when it falls.

The whole screen tested about 150,000 compounds, of which about 540 (0.36%) showed an effect of 50% or more. Some of the results follow.

This assay concerns Plasmodium falciparum. Kind of assay: Primary screen in NF54 nanoGlo assay, in single point, at 2uM, 72h; a lower Z score goes with more inhibition. The assay is classed as functional, Erythrocyte. The note with it: timepoint 72 hour.
With `c1ccc2c(c1)CC(NCCC[C@H]1CCOC1)C2`, the “% Inhibition” value turned out to be 0% and the Z score amounted to 0.06.
For the molecule `Fc1ccccc1-c1nc2ccc(-c3ccc(C(F)(F)F)cc3)cc2o1`, the “% Inhibition” value is -6% and the Z score was 0.75.
Taken in the same sequence, the figures for `O=C(N[C@H]1CCOC1)c1cnn(-c2ncc3c(n2)-c2ccccc2CCC3)c1C1CC1` were 4% and -0.61.
As for `O=C(c1cc2n(n1)CCCO2)N1CCN(c2ncccn2)CC1`, the “% Inhibition” value is listed as -15% and the Z score was determined as 2.38.
As for `c1ccc(CC(Cc2ccccc2)CN2CCC(n3cncn3)CC2)cc1`, the “% Inhibition” value is on record as -7% and the Z score was determined as 0.75.
For the molecule `C[C@]12C(=O)N(C3CCN(Cc4ccccc4)CC3)CC(=O)N1CCc1c2[nH]c2ccccc12`, the “% Inhibition” value was found to be 1% and the Z score is recorded as -0.15.
The like results for `Cc1oc(-c2cccc(F)c2)nc1CN(C)C(C)C` were, in that order, -9% and 1.43.
In the case of `CCOc1ccc(N(CC#N)S(=O)(=O)c2ccc3nncn3c2)cc1`, the “% Inhibition” value was 7% and the Z score is given as -1.11.
Taken in the same sequence, the figures for `Cc1noc(N)c1C(=O)OCc1cc(-c2ccc(Cl)cc2)no1` were -10% and 1.3.
As to `CNS(=O)(=O)CC(=O)N1CCC[C@H]1C(F)(F)F`, the “% Inhibition” value came to 0% and the Z score amounted to 0.1.
Turning to `Cc1cc(C(=O)NC2(CF)CCOCC2)nn1[C@@H](C)C1CC1`, the “% Inhibition” value came out at 2% and the Z score is on record as -0.35.
Turning to `Cn1ncnc1CNc1ccccc1C(=O)N1CCC[C@H](O)C1`, the “% Inhibition” value was -6% and the Z score was 1.15.
Take `CCc1nc(N2CC[C@@]3(CCCN(CCC4CCCCC4)C3)C2)no1`: the “% Inhibition” value is reported as -1% and the Z score was 0.12.
As for `OCc1ccc(Oc2cccc(CN3CCCC3)c2Cl)cc1`, the “% Inhibition” value was determined as 0% and the Z score is listed as -0.05.
Taken in the same sequence, the figures for `Cc1c(C(=O)NC[C@H]2CCCOC2)[nH]c2c(Cl)cccc12` were -9% and 1.62.
In the case of `Cc1cc(CN(C)Cc2cc(CN(C)C)cs2)ccn1`, the “% Inhibition” value is recorded as -8% and the Z score is given as 1.62.
In the case of `Cc1cc(C)c2[nH]c(C(=O)NCCc3csc(N)n3)c(C)c2c1`, the “% Inhibition” value is recorded as -3% and the Z score is listed as 0.61.
For `CC(C)CN1CCC[C@H]1C(=O)Nc1ccc(-c2cscn2)cc1`, the “% Inhibition” value is recorded as -1% and the Z score came out at 0.22.
As to `CCCn1nnnc1CN1CCC[C@H]1CO`, the “% Inhibition” value is listed as -7% and the Z score turned out to be 0.97.
With `Cc1ccoc1CN1CCN(c2ncccn2)CC1`, the “% Inhibition” value is reported as -7% and the Z score is listed as 1.09.
With `O=C(Nc1c(-c2ccc(F)cc2)n[nH]c1C1CC1)C1CCCC1`, the “% Inhibition” value was 4% and the Z score was -0.55.
Taken in the same sequence, the figures for `C#CCCOC(=O)[C@H](C)NC(=O)C1CCC1` were -7% and 0.94.
Consider `O=C(NCCn1nccn1)c1ccc(Br)o1`, for which the “% Inhibition” value was -5% and the Z score was found to be 0.71.
Take `COc1ccc(C[C@@H]2C3=C(CCCC3)CCN2C(=O)c2cc(C)on2)cc1`: the “% Inhibition” value is listed as -5% and the Z score is on record as 0.97.
For `CCN(CC)CCN[C@H]1CCCc2cccnc21`, the “% Inhibition” value is given as -4% and the Z score was 0.35.
Taken in the same sequence, the figures for `COc1cc(OC)cc(C(=O)N2CC[C@H](Oc3ccc(C)nn3)C2)c1` were -15% and 1.69.
As to `CC1CCN(c2nc3c(c(Oc4ccccc4F)n2)CN(Cc2ccc4c(c2)OCO4)CC3)CC1`, the “% Inhibition” value is recorded as -11% and the Z score is 1.09.
As to `CC1CN(C(=O)NCC(C)N(C)Cc2ccccc2)CCO1` (centres undefined), the “% Inhibition” value was -10% and the Z score stood at 1.14.
In the case of `CCOc1ccccc1-n1nnn(S(C)(=O)=O)c1=O`, the “% Inhibition” value is listed as -44% and the Z score stood at 5.1.
For the molecule `CC(C)OCCCNC(=O)C(C#N)C(=O)CC(C)c1ccccc1F` (centres undefined), the “% Inhibition” value was -10% and the Z score stood at 1.36.
In the case of `O=C1C2ON(c3ccccc3)C(c3ccc(-c4ccc(Cl)c(Cl)c4)o3)C2C(=O)N1c1ccc(Cl)cc1` (centres undefined), the “% Inhibition” value is -4% and the Z score stood at 0.43.
As for `CN1CCN(C(=O)c2cnccc2NC(=O)C(C)(C)C)C[C@@]12CCOC2`, the “% Inhibition” value is -5% and the Z score stood at 0.87.
As to `CCOc1cc(N2C(=O)CC3CS(=O)(=O)CC32)c(OCC)cc1NC(=O)c1ccccc1` (centres undefined), the “% Inhibition” value is given as -9% and the Z score is on record as 1.71.
The like results for `Cc1nonc1CC(=O)N1CCCC[C@@H]1CCn1ccnn1` were, in that order, -2% and 0.38.
As for `O[C@H]1Cc2ccccc2[C@H]1n1cc(-c2nccs2)nn1`, the “% Inhibition” value is listed as -9% and the Z score was 1.06.
For `COC(=O)CC[C@@H]1NC(=O)[C@@H](Cc2ccccc2)NC1=O`, the “% Inhibition” value was -5% and the Z score turned out to be 0.91.
With `Cc1ccc(CC(=O)N2CCC(c3ncc(C(=O)O)s3)CC2)s1`, the “% Inhibition” value is recorded as 5% and the Z score is given as -0.91.
`N#Cc1cc(S(=O)(=O)NCCN(C2CC2)S(=O)(=O)c2ccc(Cl)c(C#N)c2)ccc1Cl`: the “% Inhibition” value was 47% and the Z score is listed as -9.35.
The like results for `CN(Cc1ccco1)C(=O)c1cccc2cn[nH]c12` were, in that order, -6% and 0.87.
Regarding `N#Cc1c(N)nsc1N1CCCCC1`, the “% Inhibition” value was -12% and the Z score is recorded as 1.7.
As to `COc1ccc(-c2n[nH]c3c2[C@@H](c2ccc(OCc4ccccc4F)cc2)CC(=O)O3)cc1`, the “% Inhibition” value was -7% and the Z score came to 1.23.
For `Cc1cc(NC(=O)Cc2nnc3c(-c4nc(C5CC5)no4)cccn23)ccc1F`, the “% Inhibition” value turned out to be 2% and the Z score is recorded as -0.28.

The values are drawn from ChEMBL document CHEMBL4888484, “Replenishing the malaria drug discovery pipeline: Screening and hit evaluation of the MMV Hit Generation Library 1 (HGL1) against asexual blood stage Plasmodium falciparum ,using a nano luciferase reporter read-out” (2022).
